# Experimental data: the supplement of paper PMC6828730
# Counter-ions that a name gives are not always drawn. The list shows a part of the results. Most values come without repeats; read them as rough.
# Tested on: hiPSC-derived cardiomyocytes
# Test: time to death of most cells in well after compound addition (days); higher = less cardiotoxic; extreme values may be limits of the assay
# Conditions: screen: 4; 10 µM
row,Compound,time to death of most cells in well
1,Cc1ccc2nc(NCCN)c3ncc(C)n3c2c1,> 7
2,CCCCCCCCc1ccc(CCC(N)(CO)CO)cc1 [Fingolimod (FTY720) HCl],1
3,Oc1ccc2ccccc2c1SSc1c(O)ccc2ccccc12,> 7
4,O=C(O)CCC(=O)Nc1ccc(Br)cn1 [Bikinin],> 7
5,C[C@@H]1COCCN1c1cc(C2([S@](C)(=N)=O)CC2)nc(-c2cc[nH]c3nccc2-3)n1,> 7
6,CN1CC[C@H](c2c(O)cc(O)c3c(=O)cc(-c4ccccc4Cl)oc23)[C@H](O)C1 [Flavopiridol HCl],6.5
7,Cc1cc([C@@H](C)Nc2ccccc2C(=O)O)c2nc(N3CCOCC3)cc(=O)n2c1,> 7
8,O=C(c1cccc(Cl)c1F)N1CCN(Cc2cccc(Nc3nccs3)n2)CC1,> 7
9,CCOc1cc(C(=O)N2CCC(N3CCN(C)CC3)CC2)ccc1Nc1ncc2c(n1)N(C1CCCC1)c1ccccc1C(=O)N2C,3
10,CCc1ccc(/C=C2/SC(=S)NC2=O)cc1,> 7
11,COc1cc2c(Nc3ccc(NC(=O)c4ccccc4)cc3)ncnc2cc1OCCCN1CCOCC1,> 7
12,CC(C)(C)c1cnc(CSc2cnc(NC(=O)C3CCNCC3)s2)o1,> 7
13,CN1CCCN(C(=O)c2cccc(-c3ccc(/C=C4/C(=O)Nc5ccc(Cl)cc54)o3)c2)CC1,0.5
14,Cc1ccc(-n2nc(C(C)(C)C)cc2NC(=O)Nc2ccc(OCCN3CCOCC3)c3ccccc23)cc1 [Doramapimod (BIRB 796)],> 7
15,COc1cc(Nc2nc3ccccc3nc2NS(=O)(=O)c2ccc(NC(=O)c3ccc(C)c(OC)c3)cc2)cc(OC)c1,> 7
16,Cc1cc(NC(=O)c2cccc(NC(=O)/C=C/CN(C)C)c2)ccc1Nc1nccc(-c2cccnc2)n1,4
17,O=C(NCCO)c1cccc(-c2cc(Nc3ccc(OC(F)(F)F)cc3)ncn2)c1,> 7
18,O=C(NCCCNc1nc(Nc2cccc(NC(=O)N3CCCC3)c2)ncc1I)c1cccs1,> 7
19,CN(C)S(=O)(=O)c1ccc2c(c1)/C(=C/c1cc3c([nH]1)CCCC3)C(=O)N2,> 7

row,Compound,time to death of most cells in well
1,CCN1CCN(Cc2ccc(Nc3ncc(F)c(-c4cc(F)c5nc(C)n(C(C)C)c5c4)n3)nc2)CC1,> 7
2,O=C(NCc1ccccc1)c1csc(Nc2ccncn2)n1 [Thiazovivin],> 7
3,O=C(Nc1cccnc1)c1cc(-c2ccnc(F)c2)ccc1OCc1ccccc1,> 7
4,Cn1cnc2c(F)c(Nc3ccc(Br)cc3Cl)c(C(=O)NOCCO)cc21 [Selumetinib (AZD6244)],> 7
5,O=c1[nH]c2ccc(Cl)cc2c(N[C@@H]2CN3CCC2CC3)c1-c1nc2ccccc2[nH]1,> 7
6,N#CC(=C(/N)Sc1ccccc1N)/C(C#N)=C(\N)Sc1ccccc1N,> 7
7,O=C(O)[C@]1(Cc2cccc(Nc3nccs3)n2)CC[C@@H](Oc2cccc(Cl)c2F)CC1,> 7
8,COc1cc2ncnc(Oc3cccc(NC(=O)Nc4cc(C(C)(C)C(F)(F)F)on4)c3)c2cc1OC,> 7
9,O=c1ncn2nc(Sc3ccc(F)cc3F)ccc2c1-c1c(Cl)cccc1Cl,> 7
10,Cc1ccccc1-n1c(Cn2nc(-c3cccc(O)c3)c3c(N)ncnc32)nc2cccc(C)c2c1=O,> 7
11,CN1CCN(c2cccc(Nc3nc4c(-c5ccc(S(C)(=O)=O)cc5)cccn4n3)c2)CC1,> 7
12,COc1cc(OC)c(/C=C/S(=O)(=O)Cc2ccc(OC)c(NCC(=O)O)c2)c(OC)c1,> 7
13,Nc1ncnc2c1c(-c1cccc(OCc3ccccc3)c1)cn2C1CC(CN2CCC2)C1 (stereo not drawn),3.5
14,CCCCOc1c(C(=O)c2c(F)cc(C)cc2F)c[nH]c2nncc1-2,> 7
15,NC(=O)Nc1sc(-c2ccc(F)cc2)cc1C(N)=O,> 7
16,CNC(=O)c1c(F)cccc1Nc1nc(Nc2cc3c(cc2OC)CCN3C(=O)CN(C)C)nc2[nH]ccc12,> 7
17,Cc1c(NC(=O)c2ccc(C(C)(C)C)cc2)cccc1-c1cn(C)c(=O)c(Nc2ccc(C(=O)N3CCOCC3)cc2)n1,> 7
18,Cc1c(F)cc(C(=O)NC2CC2)cc1-c1ccc(C(=O)NCC(C)(C)C)cn1,> 7
19,COc1ccc2c(c1)/C(=C/c1cnc[nH]1)C(=O)N2,> 7
